The antibiotic and cytotoxicity screens of Wong et al. (2023)
The list shows a part of the results.

Columns and labels:
HSkMC = human skeletal muscle cells; assay: cytotoxicity call (relative viability < 0.9); conditions: 10 µM
HepG2 = assay: cytotoxicity call (relative viability < 0.9); conditions: 10 µM
S. aureus RN4220 = assay: growth inhibition call (relative growth <= 0.2); conditions: 50 µM

Row | SMILES | cytotoxicity call (HSkMC) | cytotoxicity call (HepG2) | growth inhibition call (S. aureus RN4220)
1 | Cc1ccc(S(=O)(=O)N(C)C[C@H]2Oc3ncc(C#CCC(C)C)cc3C(=O)N([C@@H](C)CO)C[C@@H]2C)cc1 | inactive | inactive | inactive
2 | C[C@@H]1CCCCO[C@H](CN(C)S(=O)(=O)c2ccccc2)[C@H](C)CN([C@H](C)CO)C(=O)c2cc(NS(C)(=O)=O)ccc2O1 | inactive | inactive | inactive
3 | Cc1noc(C)c1NC(=O)N(C)C[C@H]1Oc2ccc(NS(=O)(=O)c3cn(C)cn3)cc2CC(=O)N([C@@H](C)CO)C[C@@H]1C | inactive | inactive | inactive
4 | CC(C)NC(=O)N(C)C[C@H]1OCCCC[C@H](C)Oc2ccc(NC(=O)Nc3ccc(F)cc3)cc2C(=O)N([C@H](C)CO)C[C@@H]1C | inactive | inactive | inactive
5 | CCOC(=O)N(C)C[C@@H]1OCc2cn(nn2)CCCC(=O)N([C@H](C)CO)C[C@H]1C | inactive | inactive | inactive
6 | C[C@@H]1CN([C@H](C)CO)C(=O)c2cccc(NC(=O)c3ccncc3)c2O[C@H]1CN(C)Cc1ccc(-c2ccccc2)cc1 | inactive | inactive | inactive
7 | COc1ccc(S(=O)(=O)Nc2cccc3c2O[C@H](CN(C)S(=O)(=O)c2c(C)noc2C)[C@@H](C)CN([C@H](C)CO)C3=O)cc1 | inactive | inactive | inactive
8 | COc1ccc(CN(C)C[C@H]2OCCCC[C@@H](C)Oc3ccc(NC(=O)Cc4ccccc4)cc3C(=O)N([C@H](C)CO)C[C@@H]2C)cc1 | inactive | inactive | inactive
9 | C[C@@H]1CN([C@@H](C)CO)C(=O)c2cccc(NC(=O)CCCCCC(=O)Nc3ccccc3N)c2O[C@@H]1CN(C)Cc1ccccc1 | inactive | inactive | inactive
10 | C[C@H]1CN([C@@H](C)CO)C(=O)c2cccc(NC(=O)C3CCOCC3)c2O[C@@H]1CN(C)C(=O)Nc1ccccc1 | inactive | inactive | inactive
11 | C[C@@H]1CN([C@@H](C)CO)C(=O)c2cc(NC(=O)Nc3ccccc3)ccc2O[C@@H]1CN(C)Cc1ccc(-c2ccccc2)cc1 | active | active | inactive
12 | O=c1c(O)cc([C@H]2Oc3cc(O)cc(O)c3C[C@H]2O)c2cc([C@H]3Oc4cc(O)cc(O)c4C[C@H]3O)cc(O)c(O)c1-2 | inactive | inactive | inactive
13 | C[C@@H]1CN([C@H](C)CO)C(=O)Cc2cc(NC(=O)Nc3cccc4ccccc34)ccc2O[C@H]1CN(C)CC1CCCCC1 | inactive | inactive | inactive
14 | CC(C)(C)OC(=O)N1C[C@H]2C[C@@H]1C(=O)O2 | inactive | inactive | inactive
15 | CON=C(C(=O)NC1C(=O)N2C(C(=O)[O-])=C(COC(N)=O)CSC12)c1ccco1.[Na+] (centres undefined) | inactive | inactive | active
16 | COc1ccc2c3c([nH]c2c1)[C@@H](CO)N(CC1CCCC1)C[C@]13CCN(CC1)C(=O)Nc1cccc(c1)F | inactive | inactive | inactive
17 | O=S1(=O)C[C@@H]2NC(=S)N[C@@H]2C1 | inactive | inactive | inactive
18 | COc1ccc(S(=O)(=O)Nc2cccc3c2O[C@H](CN(C)Cc2ccc(Oc4ccccc4)cc2)[C@H](C)CN([C@@H](C)CO)C3=O)cc1 | inactive | active | inactive
19 | NCCCCNCCCN | inactive | inactive | inactive
20 | C/C1=C2/[N]([Co+][OH])[C@H]([C@H](CC(N)=O)[C@@]2(C)CCC(=O)NC[C@@H](C)OP(=O)(O)O[C@H]2[C@@H](O)[C@@H](n3cnc4cc(C)c(C)cc43)O[C@@H]2CO)[C@]2(C)N=C(/C(C)=C3N=C(/C=C4N=C1[C@@H](CCC(N)=O)C/4(C)C)[C@@H](CCC(N)=O)[C@]\3(C)CC(N)=O)[C@@H](CCC(N)=O)[C@]2(C)CC(N)=O | active | active | inactive
21 | O=C(CN1CCOCC1)NCC[C@H]1CC[C@H](NC(=O)Nc2ccccc2)[C@H](CO)O1 | inactive | inactive | inactive
22 | C[C@H](CO)N1C[C@H](C)[C@@H](CN(C)C(=O)Nc2ccc(C(F)(F)F)cc2)Oc2ccc(NC(=O)Nc3cccc4ccccc34)cc2C1=O | inactive | inactive | inactive
23 | Cc1cc(=O)[nH]c(=S)[nH]1 | inactive | inactive | inactive
24 | CC(C)NC(=O)Nc1ccc2c(c1)C(=O)N([C@@H](C)CO)C[C@@H](C)[C@H](CN(C)S(C)(=O)=O)OCCCC[C@@H](C)O2 | inactive | inactive | inactive
25 | C[C@@H]1CN([C@@H](C)CO)S(=O)(=O)c2ccc(C#CC3CC3)cc2O[C@@H]1CN(C)Cc1ccccc1F | inactive | inactive | inactive
26 | C[C@@H]1CCCCO[C@@H](CN(C)S(=O)(=O)c2cccs2)[C@H](C)CN([C@H](C)CO)C(=O)c2cc(NS(=O)(=O)c3ccc(Cl)cc3)ccc2O1 | inactive | active | inactive
27 | COc1ccccc1NC(=O)N(C)C[C@H]1Oc2ncc(C#CCN(C)C)cc2C(=O)N([C@@H](C)CO)C[C@H]1C | inactive | inactive | inactive

Row | SMILES | cytotoxicity call (HSkMC) | cytotoxicity call (HepG2) | growth inhibition call (S. aureus RN4220)
28 | C[C@H](CO)N1C[C@H](C)[C@H](CN(C)C(=O)Nc2ccc(C(F)(F)F)cc2)OCc2cn(nn2)CCCC1=O | inactive | inactive | inactive
29 | CC(=O)c1ccc(S(=O)(=O)NC(=O)NC2CCCCC2)cc1 | inactive | inactive | inactive
30 | CN(C)CCCNC(=O)[C@@H]1c2ccccc2C(=O)N(Cc2cc(C(F)(F)F)cc(C(F)(F)F)c2)[C@H]1c1ccc(CO)cc1 | inactive | inactive | inactive
31 | Cc1noc(C)c1NC(=O)N(C)C[C@H]1Oc2ccc(NS(=O)(=O)c3ccccc3)cc2C(=O)N([C@@H](C)CO)C[C@H]1C | inactive | inactive | inactive
32 | C[C@@H]1CN([C@H](C)CO)C(=O)c2cccc(NC(=O)CCCCCC(=O)Nc3ccccc3N)c2O[C@H]1CN(C)C(=O)Nc1cccc2ccccc12 | inactive | inactive | inactive
33 | COc1ccc2c3c([nH]c2c1)[C@H](CO)N(C[C@]13CCN(CC1)S(=O)(=O)c1ccccc1)C(=O)c1cnccn1 | inactive | inactive | inactive
34 | COc1ccc(S(=O)(=O)Nc2ccc3c(c2)C(=O)N([C@@H](C)CO)C[C@H](C)[C@@H](CN(C)C(=O)Nc2ccc(C(F)(F)F)cc2)OCCCC[C@H](C)O3)cc1 | inactive | active | inactive
35 | C[C@H](CO)N1C[C@H](C)[C@@H](CN(C)S(=O)(=O)c2cn(C)cn2)OCc2ccccc2-c2ccccc2C1=O | inactive | inactive | inactive
36 | CO[C@H](CN(C)S(=O)(=O)c1ccc(C)cc1)[C@@H](C)CN([C@@H](C)CO)S(=O)(=O)c1cccc(Cl)c1 | inactive | inactive | inactive
37 | C[C@H]1CCCCO[C@@H](CN(C)S(=O)(=O)c2ccccc2)[C@@H](C)CN([C@@H](C)CO)C(=O)c2cc(NC(=O)c3ccccc3)ccc2O1 | inactive | inactive | inactive
38 | NC(=O)NCC#Cc1ccc2c(c1)[C@]1(C(=O)N2)[C@H](C(=O)N2CCCCCCC2)[C@H]2C(=O)O[C@H](c3ccccc3)[C@H](c3ccccc3)N2[C@@H]1c1ccc(O)cc1 | inactive | inactive | inactive
39 | CN1C(=O)c2cc(NC(=O)c3cccs3)ccc2OC[C@H]2O[C@@H](CC(=O)NCC(F)(F)F)CC[C@H]21 | inactive | inactive | inactive
40 | Cc1noc(C)c1NC(=O)N(C)C[C@H]1OCCCC[C@@H](C)Oc2ccc(NS(=O)(=O)c3cccs3)cc2C(=O)N([C@H](C)CO)C[C@H]1C | inactive | inactive | inactive
41 | C[C@@H](O)CN1C(=S)S[C@@H]2CS(=O)(=O)C[C@@H]21 | inactive | inactive | inactive
42 | COc1ccc(NC(=O)N(C)C[C@H]2OCCCC[C@H](C)Oc3ccc(NC(=O)Nc4ccc5c(c4)OCO5)cc3C(=O)N([C@H](C)CO)C[C@@H]2C)cc1 | inactive | inactive | inactive
43 | C[C@H](CO)N1C[C@H](C)[C@H](CN(C)Cc2ccc(C(F)(F)F)cc2)Oc2c(NC(=O)Nc3cccc4ccccc34)cccc2C1=O | inactive | inactive | inactive
44 | CC(C)NC(=O)NCC[C@H]1CC[C@H](NC(=O)CN(C)C)[C@@H](CO)O1 | inactive | inactive | inactive
45 | Cc1noc(C)c1S(=O)(=O)N(C)C[C@H]1Oc2ccc(NC(=O)Cc3ccccc3)cc2CC(=O)N([C@@H](C)CO)C[C@H]1C | inactive | inactive | inactive
46 | COCC(=O)N1C[C@@H](C)[C@H](OC)CN(C)C(=O)c2cc(NC(=O)c3ccc(OC)cc3)ccc2OC[C@H]1C | inactive | inactive | inactive
47 | C[C@@H]1CN([C@H](C)CO)C(=O)c2cc(NC(=O)Nc3ccc(C(F)(F)F)cc3)ccc2O[C@H]1CN(C)Cc1ccc2c(c1)OCO2 | inactive | inactive | inactive
48 | C[C@@H]1CN([C@H](C)CO)C(=O)Cc2cc(NC(=O)Nc3ccccc3)ccc2O[C@H]1CN(C)S(C)(=O)=O | inactive | inactive | inactive
49 | COc1ccc(cc1)CN1C[C@]2(CN(C2)C(=O)Cc2ccncc2)c2c([nH]c3cc(ccc23)OC)[C@H]1CO | inactive | inactive | inactive
50 | Cc1noc(C)c1S(=O)(=O)Nc1ccc2c(c1)CC(=O)N([C@H](C)CO)C[C@H](C)[C@H](CN(C)C(=O)Nc1ccc3c(c1)OCO3)O2 | inactive | inactive | inactive
51 | COc1cccc2c1C(=O)c1c(O)c3c(c(O)c1C2=O)C[C@](O)(C(=O)CO)C[C@H]3O[C@H]1C[C@@H](N)[C@@H](O)[C@@H](C)O1 | active | active | active
52 | Cc1ccc(S(=O)(=O)Nc2ccc3c(c2)CC(=O)N([C@H](C)CO)C[C@H](C)[C@H](CN(C)S(C)(=O)=O)O3)cc1 | inactive | inactive | inactive
53 | Oc1c(Cl)cc(Cl)cc1Sc1cc(Cl)cc(Cl)c1O | active | active | inactive
